Assay results published in article PMC4336329 (PLoS ONE, 2015).
Hit rate of the full screen: of about 310,000 compounds, about 2,200 (0.71%) showed an effect of 50% or more. The effect is printed as a negative number. The list shows a part of the results.

target: human ether-à-go-go-related gene (hERG) potassium channel (human, UniProt Q12809); assay: primary screen, population patch clamp on CHO cells stably expressing hERG
Sequence (Q12809 whole entry, looked up): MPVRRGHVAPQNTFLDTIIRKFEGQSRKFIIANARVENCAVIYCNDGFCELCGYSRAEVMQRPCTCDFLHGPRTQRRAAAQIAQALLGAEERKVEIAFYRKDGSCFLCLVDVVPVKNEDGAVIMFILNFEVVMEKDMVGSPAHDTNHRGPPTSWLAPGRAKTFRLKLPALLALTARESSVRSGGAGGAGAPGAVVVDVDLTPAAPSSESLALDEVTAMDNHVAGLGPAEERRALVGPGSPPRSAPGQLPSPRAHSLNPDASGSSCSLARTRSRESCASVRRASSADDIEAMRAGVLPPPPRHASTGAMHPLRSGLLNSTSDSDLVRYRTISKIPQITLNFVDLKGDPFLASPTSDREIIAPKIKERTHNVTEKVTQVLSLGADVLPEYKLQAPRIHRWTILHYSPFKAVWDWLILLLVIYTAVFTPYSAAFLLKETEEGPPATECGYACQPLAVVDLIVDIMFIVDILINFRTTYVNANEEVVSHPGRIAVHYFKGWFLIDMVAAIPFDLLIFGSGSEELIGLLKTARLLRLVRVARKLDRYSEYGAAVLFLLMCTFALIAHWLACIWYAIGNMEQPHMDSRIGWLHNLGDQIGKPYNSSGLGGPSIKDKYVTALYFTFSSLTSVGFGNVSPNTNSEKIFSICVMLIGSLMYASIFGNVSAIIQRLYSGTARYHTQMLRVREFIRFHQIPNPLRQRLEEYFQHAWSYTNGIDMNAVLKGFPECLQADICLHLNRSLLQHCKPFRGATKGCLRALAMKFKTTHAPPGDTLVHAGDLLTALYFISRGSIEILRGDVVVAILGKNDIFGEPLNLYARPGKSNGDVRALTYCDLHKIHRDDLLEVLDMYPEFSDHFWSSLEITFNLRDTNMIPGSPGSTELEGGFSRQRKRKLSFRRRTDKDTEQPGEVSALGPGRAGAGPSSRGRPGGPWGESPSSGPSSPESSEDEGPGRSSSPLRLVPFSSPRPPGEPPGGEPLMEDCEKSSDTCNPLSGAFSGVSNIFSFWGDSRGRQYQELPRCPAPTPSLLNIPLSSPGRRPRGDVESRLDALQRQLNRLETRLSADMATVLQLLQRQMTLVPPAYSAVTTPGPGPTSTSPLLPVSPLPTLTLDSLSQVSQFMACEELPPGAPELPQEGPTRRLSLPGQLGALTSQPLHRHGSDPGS

Row | SMILES | hERG current change (%, negative = inhibition) at 1uM [%]
1 | COc1ccc(NC(=O)c2c(N)cnn2C)cc1 | 13.4
2 | CC(=O)Nc1ccc(C2(c3ccc(NC(C)=O)cc3)C(=O)Nc3ccccc32)cc1 | 18.4
3 | Brc1ccc(Oc2cc(Br)c(Br)cc2Br)c(Br)c1 | 15.5
4 | CN1CCN(C(=O)C(=O)c2cn(CC(=O)N3CCCC3)c3ccccc23)CC1 | 12.9
5 | COc1ccc(-c2cc(C(F)F)n3ncc(C(=O)N4CCN5CCCC5C4)c3n2)cc1 (centres unmarked) | 1.97
6 | CC1C(=O)N(Cc2ccc([N+](=O)[O-])cc2)c2ccccc2N1C(=O)c1c(F)cccc1F (centres unmarked) | 2.61
7 | Cc1cc(S(=O)(=O)Nc2ccc3c(c2)COC3=O)ccc1F | 12.3
8 | O=C(COC(=O)c1ccc2ncsc2c1)Nc1cccc(Cl)c1 | 7.42
9 | O=C(NC1CCCCC1)C(c1ccccn1)N(C(=O)c1csnn1)c1ccccc1F (centres unmarked) | 3.01
10 | CC1(C)Cc2c(sc(NC(=O)COc3ccccc3)c2C#N)C(C)(C)N1 | 2.74
11 | CCC1CCC2(CC1)NC(=O)N(CC(=O)c1c(C)[nH]c3ccccc13)C2=O (centres unmarked) | 9.4
12 | COc1ccc(NC(=O)CN(C)C(=O)c2cc(S(=O)(=O)N3CCCCCC3)ccc2OC)cc1 | 1.11
13 | Cc1ccc(C)c(-n2c(-c3ccco3)n[nH]c2=S)c1 | 0.801
14 | CCC(C)NC(=O)CN1c2cccc3cccc(c23)S1(=O)=O (centres unmarked) | 11.4
15 | COC(=O)c1c(-c2ccccc2Cl)noc1-c1cnc(N)nc1C(F)(F)F | 9.46
16 | N#Cc1c(SCC(=O)O)nc(N2CCOCC2)c2c1CCCC2 | 0.778
17 | O=C1c2ccccc2C(=O)N1CCCCN(C(=O)c1cc2ccccc2oc1=O)c1ccc(Cl)cc1 | 1.63
18 | O=[n+]1cc(-c2ccc(Cl)cc2)n([O-])c2c1CCCCC2 | 8.76
19 | CCCCC(=O)Nc1nc2c(OC)ccc(OC)c2s1 | 5.25
20 | CCOc1ccc(NS(=O)(=O)c2ccc(OCC(=O)NCCCOC)cc2)cc1 | 3.21
21 | COc1cc(OC)c2c(c1)O/C(=C\c1ccccc1)C2=O | 10.1
22 | COc1ccc(C(=O)CSC2=NS(=O)(=O)c3cc(Cl)ccc3N2)cc1 | 15.9

Row | SMILES | hERG current change (%, negative = inhibition) at 1uM [%]
23 | CCN(CC1CCCN(CCc2cccc(OC)c2)C1)C(=O)c1ccc(COC)o1 (centres unmarked) | -51.1
24 | Cc1csc(=N)n1CC(=O)N1CCc2ccccc21 | 6.66
25 | CCCOC(=O)c1ccc(Oc2cn[nH]c2-c2ccc(OC)cc2O)cc1 | 8.37
26 | Cc1ccc(N(C)S(=O)(=O)c2cccc(C(=O)NCC(c3cccs3)N3CCOCC3)c2)cc1 (centres unmarked) | 4.95
27 | CC(C)=C(NC(=O)c1ccco1)C(=O)NCCc1nc2ccccc2[nH]1 | 3.26
28 | CC1CCc2c(sc3nc(CSc4ncn[nH]4)[nH]c(=O)c23)C1 (centres unmarked) | 8.99
29 | CC(C)c1cccc(-c2ccc3c(c2)S(=O)(=O)c2cccc(C(=O)O)c2C3=O)c1 | 8.18
30 | CCOC(=O)Cn1nnnc1C(CC)N(Cc1cc2ccc(C)cc2[nH]c1=O)C1CCCC1 (centres unmarked) | -1.99
31 | O=C(c1c(F)c(F)c(F)c(F)c1F)N(Cc1ccccc1)Cc1ccccc1 | 10.2
32 | Cc1ccccc1N1CCN(c2ncnc3c2cnn3Cc2ccc(Cl)cc2)CC1 | 15.7
33 | Cn1nc(CC(=O)NCc2ccc(C(F)(F)F)cc2)c2ccccc2c1=O | -1.19
34 | Cc1ccnc(NC(=O)Nc2ccc(F)cc2)c1 | 15.7
35 | Cc1ccc2c(CN(C)Cc3ccccc3)cc(=O)oc2c1C | 13.3
36 | Cc1c(NC(=S)NC(=O)c2cccc3ccccc23)cccc1C(=O)O | 6.19
37 | CN(C)C(=O)CSc1nc2ccccc2n1Cc1ccccc1 | 4.73
38 | O=C(CSc1nc2[nH]ncc2c(=O)[nH]1)Nc1ccccc1 | 8.84
39 | COc1ccccc1NC(=O)c1c(N=Cc2cccc([N+](=O)[O-])c2)cnn1C | 14.2
40 | N#C/C(=C(/O)COc1ccccc1)c1nc2ccccc2s1 | 20.6
41 | C=CCc1cc(/C=C/c2nc(O)c([N+](=O)[O-])c(=O)[nH]2)cc(OC)c1O | 16.2
42 | COc1cccc(CNC(=O)C2CCN(S(=O)(=O)c3ccc(C)cc3)CC2)c1 | -2.72
43 | O=C(O)CC/C(=N/NC(=O)CNC(=O)C(c1ccccc1)c1ccccc1)c1ccccc1 | 9.36
44 | Cc1cc(NC(=O)CSc2nc(C3CC3)nc3sc(C)c(C)c23)no1 | 17.7

Row | SMILES | hERG current change (%, negative = inhibition) at 1uM [%]
45 | CC(C)NC(=O)CN(c1cccc(Br)c1)S(C)(=O)=O | -1.63
46 | O=C(CSCc1ccc(Cl)cc1)Nc1ccc(Br)cc1C(=O)O | 7.66
47 | CCO.N#Cc1c(SC(C(=O)O)c2ccccc2)nc2c(c1-c1cccs1)CCCC2 (centres unmarked) | 10.8
48 | CCCNC(=O)c1ccccc1NC(=O)c1ccccc1N(C)S(C)(=O)=O | 9.56
49 | O=C(COC(=O)c1cc(=O)c2ccccc2o1)NCC1CCCCC1 | 6.37
50 | Cn1ncc(C#N)c1/N=C/N1CCCC1 | 12.8
51 | S=C(c1ccc(-c2cccc(Cl)c2)o1)N1CCOCC1 | 13.1
52 | COc1ccc(C)cc1N1CC(C(=O)Nc2ccccc2C(=O)NC2CC2)CC1=O (centres unmarked) | 7.76
53 | CN(C)c1ccc(/C=C2/C(=O)NC(=O)N(Cc3ccco3)C2=O)cc1 | 11.9
54 | CN(C)S(=O)(=O)N1CCN(c2ccc([N+](=O)[O-])c(N3CCCCC3)c2)CC1 | 15.7
55 | O=C(Cn1ccc(C(F)(F)F)n1)Nc1cccc(S(=O)(=O)N2CCCCC2)c1 | -3.3
56 | CCC(=O)NCCc1c[nH]c2ccccc12 | 12.5
57 | COc1ccc(CCN=C(N)NS(=O)(=O)c2ccccc2)cc1OC | 7.46
58 | Cc1c(C(=O)NCc2ccccc2)c(-c2ccccc2)nn1-c1ccccc1 | 0.782
59 | CC(OC(=O)C1CSC2(C)CCC(=O)N12)C(=O)Nc1cccc(C#N)c1 (centres unmarked) | 18.8
60 | CCN1CCN(C(c2ccccc2)c2nnnn2CCc2ccc(OC)c(OC)c2)CC1.Cl (centres unmarked) | 12.9
61 | CCOC(=O)C1(Cc2cccc(Cl)c2)CCCN(C(=O)CCOC)C1 (centres unmarked) | 7.79
62 | Clc1ccccc1N1CCN(Cc2ccco2)CC1 | 13.6
63 | CC(=NCc1ccco1)c1c(O)n(-c2ccc(Cl)cc2)c(=O)[nH]c1=O | 13.1
64 | O=C(COc1ncnc2scc(-c3ccccc3)c12)NC1CCCc2ccccc21 (centres unmarked) | -12
65 | COc1ccc(CNC(=O)C(=O)NCC2CCCO2)cc1 (centres unmarked) | 6.7
66 | CC[n+]1ccc(C[n+]2ccccc2)c2ccccc21.[I-] | 20.1

Row | SMILES | hERG current change (%, negative = inhibition) at 1uM [%]
67 | O=C(CSc1ccc(-c2ccccc2)nn1)NC1CCCCC1 | 12.9
68 | Cc1cc(=O)n(C)c(=O)n1CCCCCCOc1cccc([N+](=O)[O-])c1 | -22.7
69 | COc1ccc(CCNC(=O)c2cnc3scc(C)n3c2=O)cc1OC | -7.04
70 | O=C(O)c1cnc(-c2ccccc2)nc1-c1ccccc1 | -1.68
71 | Cc1cccc(NC(=S)NN2CCOCC2)c1C | 14
72 | Oc1ccc2ccccc2c1/C=N/n1cnnc1 | 4.62
73 | COCCCNC(=O)/C=C/c1ccc(OCc2c(F)cccc2Cl)cc1 | 10.3
74 | Cc1ccc(S(=O)(=O)N/N=C\C=C\c2ccccc2)cc1 | 7.93
75 | CCNc1nc(NCC)n2c(SCC(=O)Nc3ccccc3[N+](=O)[O-])nnc2n1 | -2.5
76 | CCC(CC)NC(=O)C1CC(=O)N(CCc2ccc(F)cc2)C1 (centres unmarked) | 14
77 | C#CCOCCOCCOCCNc1nc(N2CCN(C(=O)C([C@@H](C)CC)n3cc(C(N)Cc4ccc(O)cc4)nn3)CC2)nc(N2CCN(C(=O)[C@H](CCC(=O)O)n3cc(C(N)[C@H](C)CC)nn3)CC2)n1.Cl (some centres unmarked) | 0.185
78 | NC(=O)c1nsnc1-c1ccccc1O | 14.1
79 | Cc1nn(-c2ccccc2)c(Cl)c1/C=N/NC(=O)c1ccnn1C | 3.69
80 | CCOc1ccccc1NC(=O)CCc1c(C)nn(-c2ccc(N3CCCCC3)nn2)c1C | 20.6
81 | O=C(CNC(=O)c1ccc(F)cc1)N/N=C/c1cc(Br)ccc1OCc1ccccc1 | 17
82 | Cn1cccc1C(=O)OCc1cc(Cl)cc2c1OCOC2 | 9.56
83 | CCNC(=S)N1CCCC(c2nc3ccc(C)cc3[nH]2)C1 (centres unmarked) | 7.78
84 | COC(=O)[C@@]12CCCCN1[C@H](c1ccc(-c3ccc(OC)cc3)c(OC)c1)[C@@H]1C(=O)N(C)C(=O)[C@@H]12.O=C(O)C(F)(F)F | 7.88
85 | COc1ccc(NC(C)C(=O)N/N=C/c2ccc([N+](=O)[O-])s2)cc1 (centres unmarked) | 7.84
86 | CCCOc1ccc(C(=O)NNC(=O)CCNC(=O)c2ccco2)cc1OC | 10.6
